Source: the RNAGym collection of RNA variant scans (doi:10.1073/pnas.2313332121)
This sample is rich in variants without activity.

B1: TPR 5TU (parent)
chain: GGAUCUUCUCGAUCUAACAAAAAAGACAAAUCUGCCACAAAGCUUGAGAGCAUCUUCGGAUGCAGAGGCGGCAGCCUUCGGUGGCGCGAUAGCGCCAACGUUCUCAACUAUGACACGCAAAACGCGUGCUCCGUUGAAUGGAGUUUAUCAUG

Variants of: B1
Test: polymerase ribozyme fitness, log enrichment relative to wild type (log ratio); higher = more active; in vitro selection for triplet polymerase activity
How it was run: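 Mutant libraries of both subunits of a heterodimeric triplet polymerase ribozyme were PCR-built, transcribed, and selected once in triplicate, with frozen incubation at −7 °C and capture of gel-excised extended constructs on streptavidin beads before RT-PCR. Illumina sequencing of input and output libraries was filtered to genotypes with ≥10 input reads and ≥1 read per output. Fitness is the logarithm of genotype enrichment over wild-type enrichment, using inverse-variance-weighted replicate averages. The logarithm is base 2.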

GGUUCUUCUCGAUCUAACAAAAAAGACAAAUCUGCCACAAAGCUUGAGAGCAUCUUCGGAUGCAGAGGCGGCAGCCUUCGGUGGCGCGAUAGCGCCAAUGUUAUCAACCAUGAUACGCAAAACGCGUGCUCCGUUGAAUGGAGUUUACCAUG [A3U C99U C103A U109C C114U U148C] and GGUUCUUCUCGAUCUAACAAAAAAGACAAAUCUGCCACAAAGCUUGAGAGCAUCUUCGGAUGCAGAGGCGGCAGCCUUCGGUAGCGUGAUAGCGCCAACGUUCUCAACUAGGACACGCAAAACGCGUGCUCCGUUGAAUGGAGUUUAUCAUG [A3U G83A C87U U111G] cannot be ordered by “polymerase ribozyme fitness (log ratio)” value: at most -4.2 for the first, at most -4.2 for the second.

GGUUCUUCUCGAUCUAACAAAAAAGACAAAUCUGCCACAAAGCUUGAGAGCAUCUUCGGAUGCAGAGGCGGCAGUCUUCGGUGGCGCGAUACCGCCUACGGUCUCAACUAUGACACGCAAAACGCGUGCUCCGUUGAAUGGGGUUUAUCAUG [A3U C75U G92C A97U U101G A142G] and GGUUCUUCUCGAUCUAACAAAAAAGACAAAUCUGCCACAAAGCUUGAGAGCAUCUUCGGAUGCAGAGGCGGCAGCCUUCGGUGGCGCACUAGCGCCAACGUUCUCUGCUAUGACACGCAAAACGCGUGCUCCGUUGAAUGGAGUUGAUCAUG [A3U G88A A89C A106U A107G U146G] cannot be ordered by “polymerase ribozyme fitness (log ratio)” value: at most -4.2 for the first, at most -4.2 for the second.

Compared with GGUUCUUCUCGAUCUAACAAAAAAGACAAAUCUGCCACAAAGCUUGAGAGCAUCUUCGGAUGCAGAGGCGCCAGCCUUCGGUGGCGCGAUAGCGCCAACGUUCUCAACUAGGACACGCAAAACGCGUGCUCCGUUGAAUGGAGUUUAUCAUG [A3U G71C U111G], GGUUCUUCUCGAUCUAACAAAAAAGACAAAUCUGCCACAAAGCUUGAGAGCAUCUUCGGAUGCAGAGGCGGCAGCCUUCGGUGUCGCGAUAGCGCCAACGUUCUCAACUAUGACACGCAAAACGCGUGCUCCGUUGAAUGGAGUUUAUCAUG [A3U G84U] is higher in “polymerase ribozyme fitness (log ratio)” value: at most -4.2 for the first, -2.4 for the second.

Compared with GGUUCUUCUCGAUCUAACAAAAAAGACAAAUCUGCCACAAAGCUUGAGAGCAUCUUCGGAUGCAGAGGCGGCAGCCUUCGCUGGCGCGAUAGCGCCAACGUUCUCAACUAUGACACGCAAAACGCGUGCUCCGUUGAAUGGAGUUUAUCAUG [A3U G81C], GGUUCUUCUCGAUCUAACAAAAAAGACAAAUCUGCCACAAAGCUUGAGAGCAUCUUCGGAUGCAGAGGCGGCAGCAUUCGGUGGCGUGAUAGCGCCAACGUUCUCAACUAUGCCACGCAAAACGCGUGCACCGUUGAAUGGAGUUUAUCAUG [A3U C76A C87U A113C U130A] is lower in “polymerase ribozyme fitness (log ratio)” value: -0.0386 for the first, at most -4.2 for the second.

Compared with GGUUCUUCUCACUCUAACAAAAAAGACAAAUCUGCCCCAAAGCUUGAGAGCAUCUUCGGAUGCAGAGGCGGCAGCCUUCGGUGGCGGGAUAGCGCCAACGUUCGCAACUAUGACACUCAAAACGCGUGCUCCGUUGAAUGGAGGUUAUCAUG [A3U G11A A12C A37C C87G U104G G117U U144G], GGUUCUUCUCGAUCUAACAAAAAAGACAAAUCUGCCACAAAGCUUGAGAGCAUCUUCGGAUGCAGAGGCGGCAGCCUUCGGUGGCGCGAUAGCGCAAACGUUCUCAACUAUGACACGCAAAACGCGUGCUCCGUUGAAUGGAGUUUAUCAUG [A3U C96A] is higher in “polymerase ribozyme fitness (log ratio)” value: at most -4.2 for the first, -0.199 for the second.

Going from GGUUCUUCUCGAUCUAACAAAAAAGACAAAUCUGCCACAAAGCUUGAGAGCAUCUUCGCAUGCAGAGGCGGCAGCCUUCGGUGGCGCGAUAGCGCCAACGUUCUCAACUAUGACACGCAAAACGCGUGCUCCGUUGAAUGGAGUUUAUCAUG [A3U G59C] to GGUUCUUCUCCAUCUAACAAAAAAGACAAAUCUGCCACAAAGCAUGAGAGCAUCUUCCGAUACAGAGACGGCAGCCUUCGGUGGCGCGAUAGCCCCAACGUUCUCAACUAUGACACGCAAAACGCGUGCUCCGUUGAAUGGAGUUUAUCAUG [A3U G11C U44A G58C G62A G68A G94C], the “polymerase ribozyme fitness (log ratio)” value falls from -0.00695 to at most -4.2.

First: GGUUCUUCUCGAUCUAACAAAAAAGACAAAUCUGCCACAAAGCUUGAGAGCAUCUUCGGAUGCAGAGGCGGCAGCCUUCGGUGGCGCGAUAGCGCCAAUGUUCUCAACUAUGACACGCAAAACGCGUGCUCCGUUGAAUGGAGUUUAUCAUG [A3U C99U]
Second: GGUCCUUCUCGAUCUAACAAAAAAGACAAAUCUGCCACAAAGCUUGAGAGCAUCUUCGGAUGCAGAGGCGGCAGCCUUCGGUGGCGCGAUAGCGCCAACGUUCUCAACUAUGACACGCAAAACGCGUGCUCCGUUUAAGGGAGUUUAUCAUG [A3U U4C G136U U139G]
The “polymerase ribozyme fitness (log ratio)” value of the first is higher: -0.307 for the first, at most -4.2 for the second.

GGUUCUUCUCGAUCUAACAAAAAAGACAAAUCUGCCACAAAGCUUGAGAGCAUCUUCGGAUGCAGAGGCGGCAGCCUUCGGUGGCGGGAUAGCGCCAAGGUUCUCAACUAUGACACGUAAAACGCGUGCUCCGUUGAAUGGAGUUUAUCCUG [A3U C87G C99G C118U A150C] and GGUUCUUCUCGAUCUAACAAAAAAGACAAAUCUGCCACAAAGCUUGAGAGCAUCUUCGAAUGCAGAGGCGGCAGCCUUCGGUGGCGCUAUAGCGCUAACGUUCUCAACUAUGACACGAAAAACGCGUGCUCCGUUGAGUGGAGUUUAUCAUG [A3U G59A G88U C96U C118A A138G] cannot be ordered by “polymerase ribozyme fitness (log ratio)” value: at most -4.2 for the first, at most -4.2 for the second.

Compared with GGUCCUUCUCGAUCUAACAAAAAAGACAAAUCUGCCACAAAGCUUGAGAGCCUCUUCGGAUGCAGAAGCGGCAGCCUUCGGUUGCGCGAUAGCGCCAACGUUCUCAACUAUGACACGCAAAUCGCGUGCUCCGUUGUAUGGAGUUUAACAUG [A3U U4C A52C G67A G83U A122U A137U U148A], GGUUCUUCUCGAUCUAACAAAAAAGACAAAUCUGCCACAAAGCUUGAGAGCAUCUUCGGAUGCAGAGGCGGCAGCCUUCGGUGGCGCGAUAACGCCAACGUUCUCAACUAUGACACGCAAAACGCGUGCUCCGUUCAAUGGAGUUUAUCAUG [A3U G92A G136C] is higher in “polymerase ribozyme fitness (log ratio)” value: at most -4.2 for the first, -4 for the second.

In the case of GGUUCUUCUCGAUCUAACAAAAAAGACAAAUCUGCCACAAAGCUUAAGAUCAUCUACGGAUGCAGAGGCGGCAACCUUCGGUGUCGCGAUAGCGCCAACGUUCUCAACUAUGACACGCAAAACGCGUGCACCGUUGAAUGGAGCUUAUUAUG [A3U G46A G50U U56A G74A G84U U130A U144C C149U], the “polymerase ribozyme fitness (log ratio)” value is reported as at most -4.2.
